# Results as given in PubChem BioAssay AID485364 (National Center for Advancing Translational Sciences (NCATS), 2010).
# Values joined by “and” are separate entries in the source; they are usually repeats but may differ in a detail not shown here. Identical values can stand only once. In all, about 360,000 compounds went through this assay and about 11,000 (3.1%) were called active. Inconclusive results, whose numbers are uncertain, are shown with a selection of clear calls. Calls follow the shape of the dose curve; as a rule, active = well fitted inhibition curve with a large enough effect; inconclusive = small, poorly fitted or top-dose-only effect; inactive = no such curve, though single readings can be large or run the other way. Potencies of inconclusive entries are left out as doubtful fits.
# Biological target: Schistosoma mansoni thioredoxin glutathione reductase (TGR) (UniProt Q962Y6)
# Assay: qHTS Assay for the Inhibitors of Schistosoma Mansoni Peroxiredoxins; also: nearly all actives have a fitted effect of over 60% in size
# Conditions: purified TGR, DTNB reduction, TNB absorbance 405 nm; activity change, negative = inhibition: at 114 µM (top of the series) unless noted
# Procedure, shortened: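 First, TGR (20 nM dispensed) and NADPH were mixed with compound. Second, a 15 min room-temperature incubation followed. Third, further NADPH and then DTNB were added to start the reaction. Finally, TNB absorbance was monitored kinetically.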
# % is scaled to controls: 0 for no effect and ±100 for the full control effect; potency is read from the fitted curve at half-maximal effect; tags tell the direction and shape of the fitted curve.
Structure (SMILES),Potency,"activity change, negative = inhibition"
Cc1ccc(C)n1-c1ccc(C(=O)NCc2ccncc2)cc1,active: 22.4 µM,
CC1CCN(CCCOc2ccc(Br)cc2Cl)CC1,,inactive: -8.51%
COc1ccc(NC(=O)c2ccc3ccccc3n2)cc1S(=O)(=O)N1CCCCC1,"inconclusive [inhibitor, partial curve]",
CCN(Cc1ccncc1)Cc1ccc(OC)cc1OC,"inconclusive [inhibitor, partial curve]",
CCOC(=O)CC1COCCN1Cc1cn(C)nc1-c1ccccc1F (stereo unspecified),"inconclusive [inhibitor, single point]",
CCC(C)NC(=O)C1CCN(C(=O)c2ccc(-n3ccc4ccccc43)s2)CC1 (stereo unspecified),,inactive: 3.87%
COc1ccc(CCNc2ncnc3[nH]ncc23)cc1OC,,inactive: 5.13%
c1cncc(CSc2nnc(-c3cccnc3)n2Cc2ccco2)c1,"inconclusive [inhibitor, partial curve]",
O=C(CCN1C(=O)/C(=C/c2ccco2)SC1=S)Nc1ccc(O)cc1C(=O)O,"inconclusive [inhibitor, full curve]",
CC(=O)Oc1ccc(/C=N/NS(=O)(=O)c2ccc(C)cc2)c(OC(C)=O)c1,"inconclusive [inhibitor, partial curve, poor fit]",
O=C(c1cc2ccccc2c(=O)o1)N1CCCCCC1,,inactive: 0.269%
O=C(NCc1cccnc1)/C(=C\c1ccc(-c2ccc(Cl)c(Cl)c2)o1)S(=O)(=O)c1ccccc1,"inconclusive [inhibitor, full curve]",
CCCCOC(=O)c1[nH]c2c(c1C)C(=O)CC(c1cc(OC)c(OC)c(OC)c1)C2 (stereo unspecified),,inactive: 3.16%
COCCNC(=O)C(=O)NCC(c1ccc2c(c1)OCO2)N1CCN(c2ccc(F)cc2)CC1 (stereo unspecified),,inactive: -19.2%
O=C1CSC(=Nc2cc(Cl)ccc2Cl)N1,"inconclusive [inhibitor, single point]",
O=C(O)c1cc(-c2ccco2)nc2ccc(Br)cc12,active: 10 µM and active: 708 nM,
Cc1cccc(N(Cc2ccccc2F)S(C)(=O)=O)c1,,inactive: 25.7%
CCn1c(N2CCN(CC(=O)c3c(C)n(C)c4ccc(OC)cc34)CC2)nc2c1c(=O)[nH]c(=O)n2C,"inconclusive [inhibitor, partial curve]",
COc1ccc(C(CNC(=O)c2ccc(S(=O)(=O)Nc3ccccc3F)cc2)N(C)C)cc1 (stereo unspecified),,inactive: 0%
NC(=O)C1CCN(Cc2nc3ccccc3c(=O)[nH]2)CC1,,inactive: 0.752%
COc1cccc(CNCCc2c[nH]c3ccccc23)c1OCc1ccccc1,,inactive: -11.5%
CN1N=C2c3ccccc3CCC2C1c1ccc(Cl)cc1 (stereo unspecified),,inactive: 0.714%
CCCCC(=O)Nc1ccc(NC(=S)NC(=O)c2ccco2)cc1OC,"inconclusive [inhibitor, full curve]",
COC(=O)c1cccc(Nc2c3c(nc4ccccc24)CCC3)c1,,inactive: 8.02%
CCn1ccnc1CN(C)Cc1c(C(=O)N2CCCCCCC2)nc2ccc(Cl)cn12,"inconclusive [inhibitor, full curve]",
Cc1cc2c3c([nH]c2cc1S(=O)(=O)NCCCOC(C)C)CC(C)(C)CC3=O,,inactive: -12.9%

Structure (SMILES),Potency,"activity change, negative = inhibition"
Cc1cc(C)n(-c2ccc(C(=O)NCc3ccc4c(c3)OCO4)cc2)n1,,inactive: -2.11%
Fc1ccc(NC(=S)Nc2ccc(Cl)cc2)cc1,"inconclusive [inhibitor, partial curve]",
CCOC(=O)C(C(=O)Nc1cccc(C)c1)C1CCCCC1 (stereo unspecified),,inactive: -29.8%
CCC(c1nnnn1CCc1ccccc1)N(Cc1ccco1)Cc1cc2c(C)ccc(C)c2[nH]c1=O (stereo unspecified),"inconclusive [inhibitor, partial curve]",
Cc1ccc(CNC(=O)C2CCCN(c3nnc(-n4c(C)ccc4C)s3)C2)cc1 (stereo unspecified),"inconclusive [inhibitor, partial curve]",
Cc1c(NC2=C(Cl)C(=O)N(c3ccccc3)C2=O)c(=O)n(-c2ccccc2)n1C,"inconclusive [inhibitor, full curve]",
CCOC(=O)c1cccc(NC(c2nnc(-c3ccccc3)o2)c2ccccc2F)c1 (stereo unspecified),"inconclusive [inhibitor, partial curve]",
C=CCn1c(O)c(N=Nc2ccccc2)c2ccccc21,active: 39.8 µM,
CCOc1cc2c3c(c1)C(C)=CC(C)(C)N3C(=O)C2=O,,inactive: 7.6%
Nc1nc2c(c(=O)[nH]1)C(c1cccc3ccccc13)C1=C(N2)c2ccccc2C1=O (stereo unspecified),"inconclusive [inhibitor, partial curve]",
CC1=C(C(=O)OCc2ccccc2)C(c2ccco2)C2=C(CC(C)(C)CC2=O)N1 (stereo unspecified),"inconclusive [inhibitor, partial curve]",
O=C(CSc1nnc2ccc(-c3ccco3)nn12)Nc1ccccc1F,active: 11.2 µM,
Cc1cc(-n2c(C)cc(C(=O)COc3cccnc3[N+](=O)[O-])c2C)no1,"inconclusive [inhibitor, partial curve]",
O=C(Nc1ccc2nc(-c3ccco3)c(-c3ccco3)nc2c1)N1CCCCCC1,active: 0.708 µM,
COc1ccc2oc(C)c(C(=O)c3ccc(C)cc3)c2c1,,inactive: -24.8%
ClCc1csc(-c2ccc(Cl)cc2)n1,"inconclusive [inhibitor, partial curve]",
CCN1CCN(Cc2ccc(NC(=O)Nc3ccccc3)cc2)CC1,"inconclusive [inhibitor, single point]",
O=C(O)C1C2C=CC3(CN(Cc4ccco4)C(=O)C13)O2 (stereo unspecified),"inconclusive [inhibitor, partial curve]",
O=C(O)CCC(=O)NCCC1=c2ccccc2=N/C1=C\c1c(O)n(Cc2ccc(F)cc2)c(=S)[nH]c1=O,"inconclusive [inhibitor, partial curve]",
COc1cccc(-c2[nH]nc3c2C(c2ccc(C)o2)C(C#N)=C(N)O3)c1 (stereo unspecified),"inconclusive [inhibitor, full curve]",
C=CC(=O)NC(NC(=O)C=C)c1ccccc1F,,inactive: 6.77%
COc1cccc(-c2nnc(SCC(N)=O)n2-c2ccc(Cl)cc2)c1,,inactive: 4.26%
COc1cc(/C=C2\SC(=Nc3ccc(Cl)c(C(=O)O)c3)NC2=O)c(Br)c(Br)c1O,"inconclusive [inhibitor, partial curve]",
CN(Cc1ccccc1)c1nc2nonc2nc1N1CCCC(CN2CCCC2=O)C1 (stereo unspecified),"inconclusive [inhibitor, partial curve]",
CC(=O)Nc1nnc(SCc2ccc(C(=O)Nc3ccccc3F)cc2)s1,,inactive: 0.122%
CCOC(=O)c1ccc(NC(=O)CCn2cnnn2)cc1,active: 89.1 µM,

Structure (SMILES),Potency,"activity change, negative = inhibition"
CC1(C)CC(NC(=O)C2CCCCC2)CC(C)(C)N1,"inconclusive [inhibitor, full curve, poor fit]",
COc1ccc(NC2CC(=O)N(c3cccc([N+](=O)[O-])c3)C2=O)cc1 (stereo unspecified),active: 56.2 µM,
COc1ccc(OCCC(=O)OCC(=O)NCc2ccco2)cc1,active: 50.1 µM,
COc1cc(C2Nc3ccccc3C(=O)N2c2ccc3c(c2)OCCO3)ccc1OCC(C)C (stereo unspecified),,inactive: 0.151%
CCc1ccccc1NC(=S)NN,,inactive: 3.11%
CCOc1ccccc1OCC(=O)NCc1ccco1,active: 20 µM,
CCN(CC)C(=O)COc1ccc2c(-c3ccccc3)cc(=O)oc2c1,,inactive: 1.91%
Cc1ccccc1N/N=C/c1ccc(N2CCOCC2)cc1,"inconclusive [inhibitor, partial curve]",
CN(C)S(=O)(=O)c1cccc(NC(=S)NC(=O)c2ccco2)c1,"inconclusive [inhibitor, full curve]",
Cn1cnnc1SCc1ccc(-c2ccc(Br)cc2)o1,active: 25.1 µM,
COc1ccc(CCn2nnnc2C(c2ccc(C)cc2)N2CCN(C)CC2)cc1OC (stereo unspecified),,inactive: -2.3%
COc1ccc(/C=C(\NC(=O)c2ccccc2)C(=O)N2CCC(C)CC2)cc1,,inactive: -16.6%
CCOC(=O)C(C(C)=O)c1c(Br)c(O)c(O)c2c(C(=O)c3ccc(C)cc3)coc12 (stereo unspecified),active: 4.47 µM,
CNC(=S)Nc1ccc(C(N)=O)cc1,active: 39.8 µM,
O=C(NC1CCCC1)C(c1ccncc1)N(CCCN1CCOCC1)C(=O)c1ccc(-c2ccccc2)[nH]1 (stereo unspecified),"inconclusive [inhibitor, partial curve]",
CCC(=O)Nc1ccc(-c2csc(NNC(C)=O)n2)cc1,"inconclusive [inhibitor, partial curve]",
CN(CC(=O)Nc1cccc(F)c1)C(=O)c1ccc(-c2ccc(Cl)cc2)o1,"inconclusive [inhibitor, partial curve]",
N#Cc1ccccc1Sc1ccccc1C(=O)OCC(=O)N1CCN(C(=O)c2ccco2)CC1,"inconclusive [inhibitor, full curve, poor fit]",
COc1ccc(N2C(=O)CC(N3CCN(S(=O)(=O)c4c(F)cccc4F)CC3)C2=O)cc1OC (stereo unspecified),"inconclusive [inhibitor, single point]",
Cc1ccc(-c2nc3ccc(Cl)cn3c2Nc2ccc3c(c2)OCCO3)s1,,inactive: 6.76%
COc1cc(CNc2ccc3[nH]c(=O)[nH]c3c2)ccc1OCc1ccc(F)cc1,"inconclusive [inhibitor, full curve, poor fit]",
Cc1ccc(Sc2c(C(=O)NCc3ccccc3C)[nH]c3ccccc23)cc1,,inactive: -0.259%
Cc1nnsc1C(=O)NNc1ccc(C(C)C)cc1,"inconclusive [inhibitor, single point]",
O=c1c2ccccc2nc(/C=C/c2ccc([N+](=O)[O-])o2)n1-c1ccc(O)cc1,"inconclusive [inhibitor, partial curve, poor fit]",
